The target of assay [1] is T1, ETS-related gene (ERG) (human (endogenous in HUVEC and HSEC)) (UniProt P11308).
T1 sequence: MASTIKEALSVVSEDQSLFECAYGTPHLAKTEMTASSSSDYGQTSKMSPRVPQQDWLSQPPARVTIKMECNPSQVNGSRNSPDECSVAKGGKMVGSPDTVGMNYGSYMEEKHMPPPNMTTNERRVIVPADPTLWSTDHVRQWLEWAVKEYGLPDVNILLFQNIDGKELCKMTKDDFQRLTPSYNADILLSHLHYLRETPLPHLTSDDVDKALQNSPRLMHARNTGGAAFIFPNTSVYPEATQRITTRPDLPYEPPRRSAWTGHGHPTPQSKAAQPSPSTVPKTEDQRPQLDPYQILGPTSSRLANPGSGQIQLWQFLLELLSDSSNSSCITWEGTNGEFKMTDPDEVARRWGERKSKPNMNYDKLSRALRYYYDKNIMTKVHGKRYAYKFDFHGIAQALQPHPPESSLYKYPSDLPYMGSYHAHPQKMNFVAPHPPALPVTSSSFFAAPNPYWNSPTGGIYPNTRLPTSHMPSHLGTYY
In words: proximity ligation; Duolink PLA on fixed HUVEC (4% paraformaldehyde) after 30 min TGFβ2 treatment; signal in the nucleus.

The chains behind the UniProt entries cited, without tags or fusion partners.
UniProt Q15797: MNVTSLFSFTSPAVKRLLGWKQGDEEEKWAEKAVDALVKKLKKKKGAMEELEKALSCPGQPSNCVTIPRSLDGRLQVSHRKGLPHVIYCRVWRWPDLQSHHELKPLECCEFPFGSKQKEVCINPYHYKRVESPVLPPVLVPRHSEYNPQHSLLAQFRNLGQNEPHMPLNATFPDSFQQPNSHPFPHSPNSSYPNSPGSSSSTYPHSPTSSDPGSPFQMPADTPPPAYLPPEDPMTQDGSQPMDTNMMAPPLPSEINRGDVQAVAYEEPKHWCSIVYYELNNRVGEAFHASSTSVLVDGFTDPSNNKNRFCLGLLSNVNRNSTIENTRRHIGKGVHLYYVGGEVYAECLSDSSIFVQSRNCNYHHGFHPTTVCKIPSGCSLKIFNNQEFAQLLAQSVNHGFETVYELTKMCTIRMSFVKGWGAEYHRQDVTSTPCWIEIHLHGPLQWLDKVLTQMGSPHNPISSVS
UniProt Q15796: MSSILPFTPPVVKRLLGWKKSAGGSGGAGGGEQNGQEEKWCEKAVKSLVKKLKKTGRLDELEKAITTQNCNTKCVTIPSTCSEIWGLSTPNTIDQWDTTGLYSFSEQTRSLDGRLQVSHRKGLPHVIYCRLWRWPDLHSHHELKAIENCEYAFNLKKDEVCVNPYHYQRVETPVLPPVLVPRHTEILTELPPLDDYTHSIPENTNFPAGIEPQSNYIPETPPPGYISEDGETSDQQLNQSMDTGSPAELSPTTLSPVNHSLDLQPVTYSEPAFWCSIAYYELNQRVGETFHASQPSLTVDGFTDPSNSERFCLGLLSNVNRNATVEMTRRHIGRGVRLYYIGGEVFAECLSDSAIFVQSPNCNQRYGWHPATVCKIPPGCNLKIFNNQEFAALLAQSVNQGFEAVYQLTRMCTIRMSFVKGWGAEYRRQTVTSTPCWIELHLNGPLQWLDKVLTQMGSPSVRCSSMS
UniProt P84022: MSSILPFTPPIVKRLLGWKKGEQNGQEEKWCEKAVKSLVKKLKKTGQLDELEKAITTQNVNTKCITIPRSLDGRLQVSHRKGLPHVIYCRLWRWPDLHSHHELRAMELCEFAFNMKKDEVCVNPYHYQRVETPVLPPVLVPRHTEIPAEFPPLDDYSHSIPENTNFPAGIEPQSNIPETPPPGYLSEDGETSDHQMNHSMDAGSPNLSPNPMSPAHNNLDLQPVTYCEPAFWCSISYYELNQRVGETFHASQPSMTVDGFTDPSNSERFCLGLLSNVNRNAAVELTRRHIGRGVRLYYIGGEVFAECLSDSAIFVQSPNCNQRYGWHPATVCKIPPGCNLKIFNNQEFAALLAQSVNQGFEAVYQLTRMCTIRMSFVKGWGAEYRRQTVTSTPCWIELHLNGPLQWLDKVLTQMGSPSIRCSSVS

Assay [2] has as its target T1, ETS-related gene (ERG) (human (endogenous in HUVEC and HSEC)). Briefly: co-IP; lysate of HSEC (hepatic sinusoidal endothelial cells from transplant patients), untreated, immunoprecipitated with anti-ERG, blotted for SMADs.
The target is the same in assay [3]. Briefly: co-IP; HUVEC whole cell lysate (1 mg) immunoprecipitated with mouse anti-ERG or mouse IgG and Protein A/G agarose overnight at 4 °C, blotted for SMADs; cells treated with PBS or TGFβ2 (10 ng/ml, 30 min) after 4 h serum starvation; some lysates treated with Benzonase (500 units, 1 h); lysis buffer 50 mM Tris pH 7.5, 150 mM NaCl, 0.1% Igepal, 1 mM EDTA, 0.25% sodium deoxycholate.

Assay [4] has the same target. Briefly: proximity ligation; PLA on HSEC, TGFβ2 treatment (Supplementary Fig. 4D).
Assay [5] has the same target. In words: condition: only cells pretreated with SB-431542 (10 μM, 1 h); co-IP; HUVEC pretreated with SB-431542 (1 h) before TGFβ2; whole cell lysate immunoprecipitated with mouse anti-ERG, blotted for SMAD3.

No constants are given. Whether binding was seen depends on the method and setting. In cells and extracts the contact can be indirect. Some results given as binding are weak or reduced against the parent protein; the word gives no strength.

On to SMAD1 (from UniProt Q15797 1-465), for which the binding result in assay [1], in assay [2] and in assay [3] was “no binding” each time.
For SMAD2 (from UniProt Q15796 1-467), in assay [3], the binding result is reported as “binds”.
Consider SMAD3 (from UniProt P84022 1-425), for which the binding result in assay [4] is listed as “binds”; in assay [1], “binds”; in assay [2], “binds”; in assay [5], “no binding”; in assay [3] it was “binds”.
As to “pSMAD3 (Ser423/425) (from UniProt P84022 1-425)”, the binding entry in assay [1] and in assay [3] was “binds” each time.

The record behind these values is paper PMC5638819.
